In the supplement of paper PMC7826260:
This is one part of the list. Cleavage of a single-stranded DNA pool by Rep nickase domains was read by sequencing at 3 µM enzyme and 37 °C for 1 h; the strands have 90 letters, of which the middle is given. Uncut reads are compared with the no-enzyme pool on a log2 scale; the lower, the more was cut; hits are not called. Reads are scaled to the total; uncut strands gain when others are lost, and binding without cutting may add a little.

Assays:
Assay in all cases: uncleaved DNA left, log2 of reads against the no-enzyme library (log2 ratio); higher = less cleavage (more negative = more Rep cleavage of the k-mer); sequences stand for … in CTCGTCCG…ACCGGAGA
[1] = system: T1, Rep nickase domain of Muscovy duck circovirus
T1 sequence (Rep 1-111, printed without the tag): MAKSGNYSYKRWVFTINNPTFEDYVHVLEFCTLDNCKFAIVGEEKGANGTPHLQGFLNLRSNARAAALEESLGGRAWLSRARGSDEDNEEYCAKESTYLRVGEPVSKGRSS
Method: (§1)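 A pool of 90-nt single-stranded DNAs with seven random bases just before the constant AC of the nick site (name = the seven bases) was cut by 3 µM recombinant His6-SUMO-tagged Rep nickase domain (300 nM DNA, 50 mM HEPES pH 8.0, 50 mM NaCl, 1 mM MnCl2, 1 h, 37 °C, three replicates). Uncut DNA was amplified and sequenced.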

[2] = system: T2, Rep nickase domain of banana bunchy top virus
T2 sequence (Rep 1-94, printed without the tag): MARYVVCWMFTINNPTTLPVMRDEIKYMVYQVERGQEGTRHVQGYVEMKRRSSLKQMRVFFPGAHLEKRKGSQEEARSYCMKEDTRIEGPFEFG
Method: as §1

[3] = system: T3, Rep nickase domain of cabbage leaf curl virus
T3 sequence (Rep 1-116, printed without the tag): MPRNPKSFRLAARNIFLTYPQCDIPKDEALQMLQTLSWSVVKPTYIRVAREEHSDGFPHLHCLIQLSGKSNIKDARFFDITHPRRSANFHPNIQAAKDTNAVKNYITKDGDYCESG
Method: as §1

[4] = system: T4, Rep nickase domain of chickpea chlorotic dwarf virus
T4 sequence (Rep 1-124, printed without the tag): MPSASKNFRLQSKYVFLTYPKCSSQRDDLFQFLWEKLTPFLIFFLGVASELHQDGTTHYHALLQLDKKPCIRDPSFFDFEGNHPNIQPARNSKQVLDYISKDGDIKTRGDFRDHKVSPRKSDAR
Method: as §1

[5] = system: T5, Rep nickase domain of faba bean necrotic yellows virus
T5 sequence (Rep 1-98, printed without the tag): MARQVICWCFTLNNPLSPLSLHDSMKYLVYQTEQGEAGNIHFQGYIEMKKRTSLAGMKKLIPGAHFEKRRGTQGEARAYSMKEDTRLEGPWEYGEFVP
Method: as §1

[6] = system: T6, Rep nickase domain of maize striate mosaic virus
T6 sequence (Rep 1-117, printed without the tag): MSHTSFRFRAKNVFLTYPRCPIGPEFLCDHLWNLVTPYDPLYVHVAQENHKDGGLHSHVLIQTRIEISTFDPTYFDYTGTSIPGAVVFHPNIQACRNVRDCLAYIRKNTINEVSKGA
Method: as §1

[7] = system: T7, Rep nickase domain of porcine circovirus 2
T7 sequence (Rep 2-116, printed without the tag): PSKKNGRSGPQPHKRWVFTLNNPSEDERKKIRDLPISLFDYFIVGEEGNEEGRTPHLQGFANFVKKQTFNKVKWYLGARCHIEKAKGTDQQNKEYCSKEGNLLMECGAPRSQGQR
Method: as §1

[8] = system: T8, Rep nickase domain of tomato yellow leaf curl virus
T8 sequence (Rep 1-136, printed without the tag): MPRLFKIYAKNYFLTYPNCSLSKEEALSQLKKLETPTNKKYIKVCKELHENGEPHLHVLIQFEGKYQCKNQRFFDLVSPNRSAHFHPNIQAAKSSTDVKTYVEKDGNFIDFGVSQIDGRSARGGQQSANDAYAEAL
Method: as §1

[9] = system: T9, Rep nickase domain of wheat dwarf virus
T9 sequence (Rep 1-137, printed without the tag): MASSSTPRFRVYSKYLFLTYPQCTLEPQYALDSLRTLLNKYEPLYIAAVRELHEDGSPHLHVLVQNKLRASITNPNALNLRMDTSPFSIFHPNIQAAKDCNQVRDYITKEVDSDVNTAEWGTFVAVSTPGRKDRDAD
Method: as §1

[10] = system: T10, Rep nickase domain of tomato golden mosaic virus
T10 sequence (Rep 1-124, printed without the tag): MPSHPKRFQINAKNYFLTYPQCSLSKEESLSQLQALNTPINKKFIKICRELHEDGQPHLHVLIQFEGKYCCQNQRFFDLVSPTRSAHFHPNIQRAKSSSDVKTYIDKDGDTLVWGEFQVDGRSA
Method: as §1

Sequence	uncleaved DNA left (log2) [1]	uncleaved DNA left (log2) [2]	uncleaved DNA left (log2) [3]	uncleaved DNA left (log2) [4]	uncleaved DNA left (log2) [5]	uncleaved DNA left (log2) [6]	uncleaved DNA left (log2) [7]	uncleaved DNA left (log2) [8]	uncleaved DNA left (log2) [9]	uncleaved DNA left (log2) [10]
ATACGCT	-0.0652	-0.101	-0.954	-2.44	-0.0793	-1.03	-0.0328	-0.0826	-0.221	
TGCGAAT	0.0175	-0.0116	-0.15	0.36	-0.0646	0.33	0.00756	-0.08	-0.0206	-0.18
GACTTGC	-0.122	-0.0284	-0.602	-0.45	-0.123	-0.902	-0.061	-0.0987	-0.213	-0.232
GAAATAG	0.0903	0.0309	-0.656	-0.519	0.0454	-0.942	0.196	0.0607	0.0139	0.0872
AGGCGGG	0.0916	0.0625	-0.0868	0.101	0.089	-0.279	0.286	0.0453	-0.00298	
TAAGACT	0.176	0.169	-2.09	-2.26	0.0719	1.23	0.152	0.118	-0.26	-0.0105
ATCAGAA	0.0814	0.0999	0.132	-0.0547	0.0561	-0.632	0.133	0.0446	0.103	
TTTAAGC	0.115	-0.0449	0.0356	-0.367	0.061	-1.04	0.0921	0.0684	0.00766	0.0247
TAAGCGT	-0.00528	-0.0857	-1.15	-1.82	0.0639	-1.02	0.106	0.0444	-0.141	-0.0605
TAGCACT	-0.0707	-0.107	-0.519	-2.85	-0.187	0.652	-3.28	-0.108	-0.14	-0.24
AGTGAAA	0.0354	-0.0369	0.102	0.466	-0.042	0.798	-0.0395	-0.157	0.14	
TTCTCTA	-0.0492	-0.0172	0.195	-0.85	-0.061	0.00209	-0.242	-0.0587	0.0568	
ACTCATA	0.0925	0.0662	-0.0869	-0.882	0.0454	-0.719	0.0819	0.0376	0.103	
AGAAGTT	0.062	0.144	-0.0636	-1.47	0.0638	-0.0357	-0.334	-0.0145	0.042	0.153
TCCCGGA	-0.0932	-0.112	0.198	0.372	-0.0385	0.114	-0.00574	-0.115	-0.0728	0.0155
ATTCGCC	0.0462	0.0645	-0.232	-0.505	0.0645	-1.03	0.117	0.00619	-0.0665	-0.103

Sequence	uncleaved DNA left (log2) [1]	uncleaved DNA left (log2) [2]	uncleaved DNA left (log2) [3]	uncleaved DNA left (log2) [4]	uncleaved DNA left (log2) [5]	uncleaved DNA left (log2) [6]	uncleaved DNA left (log2) [7]	uncleaved DNA left (log2) [8]	uncleaved DNA left (log2) [9]	uncleaved DNA left (log2) [10]
TCAGAGC	0.0181	0.025	-0.222	-0.354	0.00632	-1.05	0.0992	0.0499	-0.0511	
CCATAGG	-0.0553	-0.0872	-0.0815	0.504	0.0624	-0.358	0.102	-0.146	-0.0823	-0.0661
GAGAGGC	0.17	0.0958	0.452	0.995	0.264	0.704	0.251	0.168	0.205	
CGGATGC	-0.0268	-0.0648	-0.0557	0.297	-0.0655	0.0118	-0.0395	-0.0856	-0.0666	-0.125
GCCTGCG	-0.00442	-0.0722	-0.0545	1.21	0.00292	0.819	0.111	-0.19	0.00783	-0.00433
ATTACGC	0.0177	0.0643	-0.0324	-0.837	0.0664	-0.836	0.178	0.0721	0.00209	0.0922
AAATACA	-0.574	0.0044	-0.882	-2.87	0.00502	-0.902	-1.31	0.0284	-0.211	-0.161
CCACCTG	-0.00436	-0.0194	-0.141	-0.134	-0.00434	0.00123	-0.185	-0.0225	4e-05	-0.116
AGTAGCG	0.0793	0.0306	-0.799	0.444	0.0211	-0.662	0.14	0.0654	-0.178	
AGTGCAG	-0.0584	0.0402	-0.304	-0.04	0.012	-0.407	0.143	-0.0559	-0.0527	
TAAGCCA	-0.117	-0.0106	-1.05	-2.58	-0.148	-0.674	-0.209	-0.104	-0.556	
AGAGGTT	0.0627	-0.115	0.238	1.04	0.0482	1.6	0.0316	-0.153	-0.0598	
ACCCATG	-0.048	0.163	-0.576	-0.359	0.00575	-1.04	0.216	0.204	0.0137	
AGGAGTC	0.116	0.119	0.247	0.588	-0.0188	0.448	0.221	0.028	0.112	
TATGCGA	0.0415	0.00679	-0.752	0.368	-0.0406	-0.801	0.0246	0.0142	-0.0989	
